# In the supplement of paper PMC3334620:
# In all, about 33,000 sequences were measured (“E-score (-0.5 to 0.5)”: median about -0.017, highest 2% from about 0.3 on). This is one part of the list.
# Biological target: T1, Sut1 (UniProt P53032)
# T1 sequence: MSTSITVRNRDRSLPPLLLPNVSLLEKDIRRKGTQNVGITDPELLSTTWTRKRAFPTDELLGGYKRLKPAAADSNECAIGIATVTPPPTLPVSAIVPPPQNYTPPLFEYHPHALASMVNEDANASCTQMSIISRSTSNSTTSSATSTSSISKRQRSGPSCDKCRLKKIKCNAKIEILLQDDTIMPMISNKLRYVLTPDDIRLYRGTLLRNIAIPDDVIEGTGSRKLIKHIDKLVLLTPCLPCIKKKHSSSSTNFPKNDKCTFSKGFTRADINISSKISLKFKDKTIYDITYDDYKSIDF
# Test: PBM E-score (8-mer binding enrichment) (E-score (-0.5 to 0.5)); higher = stronger / more preferred TF binding; most listed sequences are background and not binding sites
# Settings: protein concentration: 200 nM; construct: GST-full length
# How it was run: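 Masliner-normalised scans of fluorescent anti-GST signal were the basis for scoring. That signal came from GST-tagged yeast transcription factors applied at about 100-200 nM to double-stranded universal all-10-mer Agilent arrays on fresh or once-stripped slides. Each ungapped eight-base word, pooled with its reverse complement, received an E-score from the Universal PBM Analysis Suite.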
row,Sequence,PBM E-score
1,AACATTCT,0.102
2,AAACTGTT,0.241
3,AACTCGTG,-0.127
4,AGCCCGGG,0.0766
5,AATCGCCC,-0.218
6,AGGATCAT,-0.11
7,GCGGGGTA,-0.0426
8,CTAAATAA,0.206
9,TACAATGA,0.153
10,GGTGAGGA,-0.0793
11,GCAATCAA,0.134
12,ATTACCCC,-0.003
13,CCGCGACA,-0.0973
14,GCTACTAC,0.199
15,ATTTGGAC,0.14
16,TAGCAAGA,-0.0814
17,AAGCACGT,-0.108
18,CGGTCATA,0.0613
19,ATAGCGGC,-0.127
20,ATATTAGC,0.13
21,AGGTCACG,-0.186
22,GGTAGGAC,-0.186
23,AATGACAC,-0.00894
24,CCTAGCAC,-0.111
25,CAATTACA,0.178

row,Sequence,PBM E-score
1,ACCACCGC,0.0358
2,CCGGACAG,0.241
3,CATAGAGA,-0.00333
4,CCCGGAAG,0.206
5,CCCGCCTC,-0.301
6,AGACGCTA,-0.162
7,AATGGCAA,0.0477
8,CGGAAATC,0.212
9,ACTATAGC,-0.106
10,ACGTTCAC,-0.0111
11,CTGTACAC,-0.0995
12,TAAGATTA,0.092
13,CTCGACGC,-0.0325
14,CCATCTAC,0.00483
15,CCAGATGG,-0.267
16,ATTAATGC,-0.0368
17,CGCAAAGA,0.0658
18,CACAAGAG,-0.0826
19,GCTGCTCA,-0.176
20,ATGGATCG,0.0974
21,ACCCGCTC,-0.445
22,GAATGCAC,0.117
23,CACCGCTG,-0.261
24,AGAACTAC,0.0481
25,GAAGCCAA,0.0605

row,Sequence,PBM E-score
1,CAGCATGC,-0.231
2,ATGGCTCG,-0.126
3,ATCCTTCC,-0.295
4,TGCGCGCA,-0.29
5,CTCACTCA,0.12
6,CGACAAGA,0.042
7,ATAGGGAA,0.0196
8,GGCACTCA,-0.374
9,TAATTAGA,0.218
10,AATGCCGG,0.151
11,AGCCATTA,0.075
12,GTCAGCAA,0.0566
13,ACCATCGA,-0.151
14,ACACGTTC,0.00118
15,TGACATCA,-0.0471
16,AAGAAACC,0.13
17,ACATTTGA,0.034
18,TAAGCGAA,0.175
19,AATCTTGC,0.0892
20,ACGGCCGG,-0.0505
21,GTTGCAAC,0.205
22,CTACATAA,-0.0515
23,CATAGGCC,-0.26
24,ACTATTAC,0.129
25,CCTGGAGC,-0.256

row,Sequence,PBM E-score
1,CTAAAGTC,0.00063
2,TATAACCA,0.195
3,CTTGGCGA,-0.156
4,AAGAGCTA,-0.0379
5,CAAGGATG,-0.253
6,AGACCAAC,-0.00773
7,CCAACCTC,-0.0984
8,GGCTCAAA,-0.00447
9,ACTCGCCC,-0.247
10,AAAAATAT,0.248
11,GCGATCAC,-0.132
12,ACGCTATG,-0.184
13,CTAGGATA,-0.137
14,CGTGAACG,-0.207
15,CCATTCCC,-0.15
16,CGTTCACC,0.117
17,AAAACGTA,0.125
18,ATTGATTG,0.161
19,ATAAATTG,0.268
20,GCTTTAAC,-0.0118
21,AAAACATA,0.194
22,AGTATCTC,0.116
23,AATACGTG,-0.0995
24,GACGGATC,0.00624
25,GACTTTGC,0.0488

row,Sequence,PBM E-score
1,CCCGCGCG,0.00082
2,GAGAGAAA,0.0959
3,GCCAGCTA,-0.293
4,GGCCGGAC,0.302
5,CGGGTGAA,0.141
6,ATCCAGGG,-0.244
7,CGTCGCCA,-0.133
8,CTGCCTAC,-0.0133
9,AGTCCGGG,0.485
10,TAACCGTA,-0.0185
11,GCTATTCA,0.0978
12,GGACCCAA,-0.0167
13,GCTATACC,-0.134
14,AGCACCTG,-0.127
15,CGCTCACC,-0.145
16,AATGCCAA,0.0414
17,ACCTGCCC,-0.282
18,AAACAAGC,0.0434
19,AACGGTCC,-0.0984
20,GTTACGGA,0.231
21,ACACTCAA,0.0928
22,AAGCTACC,-0.0295
23,TACTCGCA,0.0383
24,AACTCTTA,0.126
25,GGCCCGAC,-0.109

row,Sequence,PBM E-score
1,ATGTATTA,0.251
2,CGCACCGC,-0.133
3,ATCGAGGA,0.0113
4,GACATCGA,-0.157
5,CGCACGCC,-0.0167
6,ATTTGTTC,0.286
7,ACTCTCTG,-0.0936
8,GGTCGTAA,-0.0279
9,GCTGTACC,-0.103
10,CCGGGACA,0.17
11,AAGGTGCG,-0.00385
12,AGGATTAG,-0.0387
13,GAGACAAC,-0.0176
14,AAAGCAGT,0.0204
15,CAGACCTG,-0.0841
16,CTTATCTC,0.0713
17,AACGAGGG,-0.199
18,AGGTTAAT,0.0927
19,ACTCAGAA,0.112
20,AGGCATAC,-0.0745
21,ACATTCAA,0.175
22,AATAACCT,0.12
23,GAGTGTCC,0.107
24,AATGGCCC,-0.277
25,CGGAATGC,0.122

row,Sequence,PBM E-score
1,ACGTCACG,-0.103
2,GAGGTGAC,0.0848
3,CCATCATA,0.0522
4,AGCTTACC,0.0119
5,AACACCAC,0.0652
6,GCTGAAAA,0.16
7,CGGATCCA,0.115
8,AGTAGTCA,-0.1
9,GAAGGCTA,-0.0663
10,CTATGAAC,0.0322
11,CTCTTTTC,-0.0102
12,CTGAGAAA,-0.0651
13,AAGATGCG,-0.0649
14,CTCCCGGA,0.232
15,AACACGAA,0.128
16,GACGTGTA,-0.0944
17,AGGTTTAC,-0.0352
18,AGAGGACT,-0.258
19,AAGTACAA,0.00208
20,CTCCCCTC,-0.134
21,CACGACAA,0.00429
22,GGGTATCA,-0.0925
